What was measured:
[1] = tested on: MDA-MB231 cells; settings: positive control, 5 μM 72 h
[2] = tested on: ERα expression in MDA-MB231 cells; settings: cited from earlier work
[3] = tested on: MDA-MB231 cells; settings: tamoxifen only, 48 h

## Nc1ncn([C@@H]2O[C@H](CO)[C@@H](O)[C@H]2O)c(=O)n1 [5-azacytidine]
[1]
  overall percentage of methylation of the genome: reduce the overall percentage of methylation of the genome

## Nc1ncn([C@H]2C[C@H](O)[C@@H](CO)O2)c(=O)n1 [5aza-2-deoxycytidine]
[2]
  expression of ERα: reinduce the expression of ERα

## CC/C(=C(\c1ccccc1)c1ccc(OCCN(C)C)cc1)c1ccccc1 [tamoxifen]
[3]
  sensitivity of the cells to tamoxifen alone: insensitive
